# Reference: ChEMBL document CHEMBL4888484, “Replenishing the malaria drug discovery pipeline: Screening and hit evaluation of the MMV Hit Generation Library 1 (HGL1) against asexual blood stage Plasmodium falciparum ,using a nano luciferase reporter read-out” (2022)
# The campaign covered roughly 150,000 compounds. About 540 (0.36%) showed an effect of 50% or more. This is one part of the list.
# Tested on: Plasmodium falciparum
# Test: Primary screen in NF54 nanoGlo assay, in single point, at 2uM, 72h; a lower Z score goes with more inhibition
# Type: functional, Erythrocyte
# Details: timepoint 72 hour
SMILES,% Inhibition [%],Z score
CCn1ccc(CC(=O)N2CCCc3c(OC)cc(OC)cc32)n1,-2,0.27
CCc1nc(N)sc1C(=O)N[C@H]1CC(=O)Nc2ccccc21,-14,1.31
Cc1nc(CN2CCC(n3nccc3NC(=O)c3cccc(F)c3)CC2)c[nH]1,-10,0.89
CC[C@@H](CS(=O)(=O)c1ccccc1)NC(=O)NCc1cccnc1,1,-0.11
COc1nc(OC)nc(-c2cccc3cccnc23)n1,-7,0.95
CCc1nc(C)c(CN2CCC(CCC(=O)NC[C@H]3CCCO3)CC2)[nH]1,6,-0.94
CCC(=O)N1CCCN(c2nc(Cc3ccccc3)nc3onc(-c4ccc(C(C)(C)C)cc4)c23)CC1,-10,1.59
Cc1csc2ncnc(NCc3nnc([C@@H]4CCCO4)[nH]3)c12,-10,1.01
CC(C)(C)c1nc(Cn2nnc3ccccc3c2=O)no1,-1,0.2
N#Cc1cnc(NC[C@H](O)c2ccc(-c3ccccc3)cc2)cn1,1,-0.14
COc1ccccc1OC1(C(=O)O)CCN(Cc2cc3ccccc3o2)CC1,-4,0.45
CCC(NC(=O)c1cc(C)cc(OC)c1O)C1CCOC1 (configuration not stated),2,-0.38
COCCS(=O)(=O)Nc1ccc(NCCO)c(C(F)(F)F)c1,-11,2.03
CC1(C)CC[C@H](Cn2cnc3c2CCCC3)O1,-8,0.86
CC1CCC(N(C)S(=O)(=O)c2ccc3c(c2)CCC3)CC1 (configuration not stated),5,-0.42
CCCC[C@@H]1C[C@@H]1C(=O)N1CCC(n2cc(CC(C)C)nn2)CC1,-7,1.06
Cc1nn(-c2ccccc2)c2c1N=C(c1ccccc1)C[C@@H](c1ccccc1)N2,-7,1.1
COC(=O)C1CCCCCC1NCc1noc(C2CC2)n1 (configuration not stated),-17,1.76
O=C1CCc2cc(S(=O)(=O)N3C[C@@H]4[C@H](C3)[C@H]3CC[C@@H]4O3)ccc2N1,-14,2.65
O=C(Nc1cccnc1-n1cc(Cl)cn1)c1cccc(Br)c1,-5,0.67
COc1cncnc1NC(=O)N1CCN(c2c(F)cccc2F)CC1,-16,2.55
C[C@@H](O)C(=O)N1CCC2(CC1)Cc1cccc(c1)Oc1cccc(c1)CCNC2=O,-12,1.48
CCCc1nccn1Cc1ccc(Cl)cn1,-7,0.84
O=S(=O)(CC1CC(F)(F)C1)N[C@]12CCC[C@H]1OCC2,-5,0.41
CC1CCC2(CC1)OC[C@@H](C(=O)N1CCCC1)N2C(=O)c1ccccc1 (some centres not stated),-8,0.78
COc1ccc(C2(c3nc(-c4ccc(=O)[nH]c4)no3)CC2)cc1,-9,1.71

SMILES,% Inhibition [%],Z score
O=C(Cn1cc(Cl)cn1)N1CCC(N2CCc3ccccc3C2)CC1,-14,1.8
COc1cccc(CO[C@@H]2CN(C(=O)CCc3scnc3C)CC(=O)N(Cc3ccccn3)C2)c1,-2,0.22
CN(Cc1ccccc1)C(=O)C1C(c2cccc(NC(=O)c3ccccc3F)c2)OC(=O)N1Cc1ccccc1 (configuration not stated),-12,1.15
CN1CCCC(N(C)C(=O)c2ccc(NC(=O)C(C(=O)O)C(C)(C)C)cc2)C1 (configuration not stated),0,0.05
COC(=O)C1CCN2C(=O)N(c3ccc(OC(F)F)nc3)C(=O)C2C1 (configuration not stated),-11,1.71
CC1(C)C2CN(C(=O)C3CCC(C(N)=O)CC3)CC21 (configuration not stated),-4,0.37
CCC1(CC)CCCN(C(=O)c2cnn(C)c2)CC1,-7,1.35
CCc1cccc(NC(=O)N2CCN(C3=CC4=NC[C@H](C)N4C=N3)CC2)c1,58,-5.02
CS(=O)(=O)c1ccc(S(=O)(=O)N2CCC[C@H](C(=O)c3cccc(Cl)c3)C2)cc1,-1,0.16
Cc1cc(C)c2c(c1)-c1c(ssc1=S)C(C)(C)N2C(=O)CCC1CCCCC1,-5,0.64
COC(=O)N[C@H](C(=O)Nc1ccc(Cl)cc1C)C(C)C,4,-0.79
CCNC(=O)[C@@H]1CCCN1C(=O)Nc1cccc(-c2ccccc2OC)c1,1,-0.25
CCCN1CCCN(C(=O)c2cccc3ccnn23)CC1,1,-0.17
Cc1ccc(NC(=O)CN2CCn3cccc3[C@H]2c2ccc(F)cc2F)cc1C,0,-0.02
CC[C@H]1C[C@@H](NC(C)=O)C[C@@H](c2c(C)ccc3ccccc23)O1,-2,0.3
CO[C@@H](CNC(=O)N1CCC(c2nnc(CO)n2C)CC1)c1cccs1,12,-1.71
O=C(Nc1cc(C2CCCC2)[nH]n1)c1cscn1,-15,2.31
COc1ccc(CN(C(=O)N[C@H]2CC[C@H](O)CC2)C2CCCC2)c(OC)c1,0,-0.09
CCN1CC[C@H](N(C)C(=O)Nc2ccc(N3CCOCC3)nc2)C1,-12,1.51
Cc1nc(C#N)c(NCCc2ccccc2)o1,0,-0.02
CCCc1nnc(N2CCc3[nH]c4ccccc4c3C2)s1,-1,0.21
CN(CCCn1cccn1)C(=O)[C@H]1CC(=O)N(C2CCCC2)C1,-14,1.84
Brc1cccc2c(N3CC(n4cccn4)C3)ncnc12,0,-0.05
OCCN(CCO)Cc1ccc(F)cc1F,-3,0.52
CCOC(=O)N1CCN(Cc2ccc(-c3ccccc3C#N)o2)CC1,-12,2.2
CC(C)n1cnnc1[C@H](C)Nc1ncc(C#N)c(N)n1,4,-0.73

SMILES,% Inhibition [%],Z score
Cc1nc2n(c1CCNC1=NS(=O)(=O)c3ccccc31)CCCC2,-7,1.08
Cc1nn(-c2ccccc2)c(C)c1Cc1nc(C(C)C)no1,0,0.07
Cc1cc(N2C(=O)C(C)CS2(=O)=O)ccc1S(=O)(=O)NCC(c1ccco1)N(C)C (configuration not stated),3,-0.55
Clc1ccc2nc(NCc3noc(C4CC4)n3)sc2c1,-11,1.32
Cc1ncc(CN2CC[C@](C(=O)O)(c3ccccc3)C2)s1,-10,1.74
Cn1c(CN2CCCCCC2)nnc1C1CCN(C(=O)Cn2ccnn2)CC1,-17,2.35
CCc1nc(N)sc1C(=O)NC[C@H]1CCN(CC(C)C)C1,-6,1.1
O=C(c1cccc2c1CCCC2)N1CC2(CC2)C1,4,-0.59
COCCN(CC1CCN(C)CC1)C(=O)c1nnc(C(C)(C)C)s1,-5,0.98
Cc1ncc(CN2CCC[C@H](c3ccnn3C)C2)n1C,0,-0.08
Cc1ccc(CCC(=O)N[C@H]2CC(=O)N(C(C)C)C2)s1,-2,0.22
COC(=O)[C@H]1CC[C@H](C(=O)N(Cc2ccccn2)C(C)(C)C)CC1,1,-0.15
CC(C)Cn1cc(NC(=O)[C@H]2CC(=O)N(C(C)C)C2)c(C(F)F)n1,-9,0.78
CO[C@@H](CS(=O)(=O)Nc1ncc2[nH]ccc2c1Br)C(C)C,1,-0.11
CC1CN(CCC2CCOCC2)CC[S+]([O-])C1 (configuration not stated),19,-2.36
CCOc1ncccc1-c1nc(CC)n(C)n1,6,-0.97
Cc1ncc(CN(Cc2cnn(C)c2)C2CC2)n1C,-13,2.3
CCOC1(c2nc(C3CC4CCC3N(C(=O)OC)C4)no2)CCCC1 (configuration not stated),0,-0.04
COc1ccc(CNC(=O)N2CCC3(CC2)C[C@@H]3c2noc(C)n2)cc1,-6,0.83
O[C@H]1CCN(Cc2cc(-n3ccnc3)cs2)C12CCCC2,2,-0.26
Cc1cc(NS(=O)(=O)c2cccs2)n(-c2cc(C)c3cccc(C)c3n2)n1,2,-0.21
O=C(CCCc1nccs1)Nc1ccc2[nH]ncc2c1,2,-0.3
COCCn1c(-c2ccnn2C)nnc1N1CCC=C(C)C1,-2,0.27
O=C(c1cc[nH]n1)N1CCC2(CC1)C[C@@H](Cc1cccc(F)c1)CCO2,-20,2.53
